# Reference: the supplement of paper PMC8728848
# This is one part of the list.
# B1: AAA (Anguilla anguilla), Q7SIC1 (protein)
# chain: VIPEGYTQENVAVRGKATQSAQLRGEHAANSEASNAIDGNRDSNFYHGSCTHSSGQANPWWRVDLLQVYTITSVTITNRGDCCGERISGAEINIGQHLASNGVNNPECSVIGSMATGETKTFHCPAPMIGRYVVTYLPTSESLHLCEVEVNVDKPAAA
# Experiments:
# Experiment in all cases: glycan array binding signal (z-score within array); higher = stronger binding
# Settings in all cases: glycan notation: IUPAC condensed, linker removed
# [1] = molecular target: GlcNAc(b1-2)[GlcNAc(b1-6)]Man(a1-6)[GlcNAc(b1-4)][GlcNAc(b1-2)Man(a1-3)]Man(b1-4)GlcNAc(b1-4)GlcNAc
# Summary of the method: (§1)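 The binding signal is a Z-score computed within each array. Data were drawn from 3228 arrays in the Consortium for Functional Glycomics database, restricted to those with a known protein sequence. Scores were averaged over arrays of the same protein sequence at different concentrations or buffers, and over linkers, and negative values can be taken as non-binding.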
# GlcNAc(b1-3)Fuc = molecular target: GlcNAc(b1-3)Fuc
# Summary of the method: as §1
# GlcNAc(b1-3)Gal = molecular target: GlcNAc(b1-3)Gal
# Summary of the method: as §1
# [2] = molecular target: GlcNAc(b1-3)Gal(b1-3)GalNAc
# Summary of the method: as §1
# GlcNAc(b1-3)Gal(b1-4)Glc = molecular target: GlcNAc(b1-3)Gal(b1-4)Glc
# Summary of the method: as §1
# [3] = molecular target: GlcNAc(b1-3)Gal(b1-4)GlcNAc
# Summary of the method: as §1
# [4] = molecular target: GlcNAc(b1-3)Gal(b1-4)GlcNAc(b1-2)Man(a1-3)[GlcNAc(b1-3)Gal(b1-4)GlcNAc(b1-2)Man(a1-6)]Man(b1-4)GlcNAc(b1-4)GlcNAc
# Summary of the method: as §1
# [5] = molecular target: GlcNAc(b1-3)Gal(b1-4)GlcNAc(b1-2)Man(a1-3)[GlcNAc(b1-3)Gal(b1-4)GlcNAc(b1-2)Man(a1-6)]Man(b1-4)GlcNAc(b1-4)[Fuc(a1-6)]GlcNAc
# Summary of the method: as §1
# [6] = molecular target: GlcNAc(b1-3)Gal(b1-4)GlcNAc(b1-2)[GlcNAc(b1-3)Gal(b1-4)GlcNAc(b1-6)]Man(a1-6)[GlcNAc(b1-3)Gal(b1-4)GlcNAc(b1-2)Man(a1-3)]Man(b1-4)GlcNAc(b1-4)GlcNAc
# Summary of the method: as §1
# [7] = molecular target: GlcNAc(b1-3)Gal(b1-4)GlcNAc(b1-3)Gal(b1-4)GlcNAc
# Summary of the method: as §1
# [8] = molecular target: GlcNAc(b1-3)Gal(b1-4)GlcNAc(b1-3)Gal(b1-4)GlcNAc(b1-2)Man(a1-3)[GlcNAc(b1-3)Gal(b1-4)GlcNAc(b1-3)Gal(b1-4)GlcNAc(b1-2)Man(a1-6)]Man(b1-4)GlcNAc(b1-4)GlcNAc
# Summary of the method: as §1
# [9] = molecular target: GlcNAc(b1-3)Gal(b1-4)GlcNAc(b1-3)Gal(b1-4)GlcNAc(b1-2)Man(a1-3)[GlcNAc(b1-3)Gal(b1-4)GlcNAc(b1-3)Gal(b1-4)GlcNAc(b1-2)Man(a1-6)]Man(b1-4)GlcNAc(b1-4)[Fuc(a1-6)]GlcNAc
# Summary of the method: as §1
# [10] = molecular target: GlcNAc(b1-3)Gal(b1-4)GlcNAc(b1-3)Gal(b1-4)GlcNAc(b1-2)[GlcNAc(b1-3)Gal(b1-4)GlcNAc(b1-3)Gal(b1-4)GlcNAc(b1-6)]Man(a1-6)[GlcNAc(b1-3)Gal(b1-4)GlcNAc(b1-3)Gal(b1-4)GlcNAc(b1-2)Man(a1-3)]Man(b1-4)GlcNAc(b1-4)[Fuc(a1-6)]GlcNAc
# Summary of the method: as §1
# [11] = molecular target: GlcNAc(b1-3)Gal(b1-4)GlcNAc(b1-3)Gal(b1-4)GlcNAc(b1-3)Gal(b1-4)GlcNAc(b1-2)Man(a1-3)[GlcNAc(b1-3)Gal(b1-4)GlcNAc(b1-3)Gal(b1-4)GlcNAc(b1-3)Gal(b1-4)GlcNAc(b1-2)Man(a1-6)]Man(b1-4)GlcNAc(b1-4)GlcNAc
# Summary of the method: as §1
# [12] = molecular target: GlcNAc(b1-3)Gal(b1-4)GlcNAc(b1-3)Gal(b1-4)GlcNAc(b1-3)Gal(b1-4)GlcNAc(b1-2)Man(a1-3)[GlcNAc(b1-3)Gal(b1-4)GlcNAc(b1-3)Gal(b1-4)GlcNAc(b1-3)Gal(b1-4)GlcNAc(b1-2)Man(a1-6)]Man(b1-4)GlcNAc(b1-4)[Fuc(a1-6)]GlcNAc
# Summary of the method: as §1
# [13] = molecular target: GlcNAc(b1-3)Gal(b1-4)GlcNAc(b1-3)Gal(b1-4)GlcNAc(b1-3)Gal(b1-4)GlcNAc(b1-2)[GlcNAc(b1-3)Gal(b1-4)GlcNAc(b1-3)Gal(b1-4)GlcNAc(b1-3)Gal(b1-4)GlcNAc(b1-6)]Man(a1-6)[GlcNAc(b1-3)Gal(b1-4)GlcNAc(b1-3)Gal(b1-4)GlcNAc(b1-3)Gal(b1-4)GlcNAc(b1-2)Man(a1-3)]Man(b1-4)GlcNAc(b1-4)[Fuc(a1-6)]GlcNAc
# Summary of the method: as §1
# [14] = molecular target: GlcNAc(b1-3)Gal(b1-4)GlcNAc(b1-3)Gal(b1-4)GlcNAc(b1-3)Gal(b1-4)GlcNAc(b1-3)Gal(b1-4)GlcNAc(b1-2)Man(a1-3)[GlcNAc(b1-3)Gal(b1-4)GlcNAc(b1-3)Gal(b1-4)GlcNAc(b1-3)Gal(b1-4)GlcNAc(b1-3)Gal(b1-4)GlcNAc(b1-2)Man(a1-6)]Man(b1-4)GlcNAc(b1-4)GlcNAc
# Summary of the method: as §1
# [15] = molecular target: GlcNAc(b1-3)Gal(b1-4)GlcNAc(b1-3)Gal(b1-4)GlcNAc(b1-3)Gal(b1-4)GlcNAc(b1-3)Gal(b1-4)GlcNAc(b1-2)Man(a1-3)[GlcNAc(b1-3)Gal(b1-4)GlcNAc(b1-3)Gal(b1-4)GlcNAc(b1-3)Gal(b1-4)GlcNAc(b1-3)Gal(b1-4)GlcNAc(b1-2)Man(a1-6)]Man(b1-4)GlcNAc(b1-4)[Fuc(a1-6)]GlcNAc
# Summary of the method: as §1
# [16] = molecular target: GlcNAc(b1-3)Gal(b1-4)GlcNAc(b1-3)Gal(b1-4)GlcNAc(b1-3)Gal(b1-4)GlcNAc(b1-3)Gal(b1-4)GlcNAc(b1-2)[GlcNAc(b1-3)Gal(b1-4)GlcNAc(b1-3)Gal(b1-4)GlcNAc(b1-3)Gal(b1-4)GlcNAc(b1-3)Gal(b1-4)GlcNAc(b1-6)]Man(a1-6)[GlcNAc(b1-3)Gal(b1-4)GlcNAc(b1-3)Gal(b1-4)GlcNAc(b1-3)Gal(b1-4)GlcNAc(b1-3)Gal(b1-4)GlcNAc(b1-2)Man(a1-3)]Man(b1-4)GlcNAc(b1-4)[Fuc(a1-6)]GlcNAc
# Summary of the method: as §1
# [17] = molecular target: GlcNAc(b1-3)Gal(b1-4)GlcNAc(b1-3)Gal(b1-4)GlcNAc(b1-3)GalNAc
# Summary of the method: as §1
# [18] = molecular target: GlcNAc(b1-3)Gal(b1-4)GlcNAc(b1-3)GalNAc
# Summary of the method: as §1
# [19] = molecular target: GlcNAc(b1-3)Gal(b1-4)GlcNAc(b1-3)[GlcNAc(b1-3)Gal(b1-4)GlcNAc(b1-3)]GalNAc
# Summary of the method: as §1
# [20] = molecular target: GlcNAc(b1-3)Gal(b1-4)GlcNAc(b1-6)[Gal(b1-3)]GalNAc
# Summary of the method: as §1
binder,measurement,setting,value
B1,glycan array binding signal (z-score),[1],-0.254
same,glycan array binding signal (z-score),GlcNAc(b1-3)Fuc,-0.071
same,glycan array binding signal (z-score),GlcNAc(b1-3)Gal,-0.048
same,glycan array binding signal (z-score),[2],-0.195
same,glycan array binding signal (z-score),GlcNAc(b1-3)Gal(b1-4)Glc,-0.116
same,glycan array binding signal (z-score),[3],-0.251
same,glycan array binding signal (z-score),[4],-0.171
same,glycan array binding signal (z-score),[5],-0.212
same,glycan array binding signal (z-score),[6],0.12
same,glycan array binding signal (z-score),[7],-0.295
same,glycan array binding signal (z-score),[8],0.569
same,glycan array binding signal (z-score),[9],0.047
same,glycan array binding signal (z-score),[10],0.944
same,glycan array binding signal (z-score),[11],0.767
same,glycan array binding signal (z-score),[12],0.309
same,glycan array binding signal (z-score),[13],1.18
same,glycan array binding signal (z-score),[14],0.912
same,glycan array binding signal (z-score),[15],0.37
same,glycan array binding signal (z-score),[16],1.16
same,glycan array binding signal (z-score),[17],-0.231
same,glycan array binding signal (z-score),[18],-0.213
same,glycan array binding signal (z-score),[19],-0.146
same,glycan array binding signal (z-score),[20],-0.298
